# Assay results reported in the supplement of paper PMC10037445.
# The full ranking holds about 2,900 compounds; the median of “IRF Lucia reporter activity, fold change vs agonist alone” is about 0.9, and the highest 2% start at about 2.8. The list shows a part of the results.
# What was measured:
# RAW-Dual [1] = test: IRF Lucia reporter activity, fold change vs agonist alone; cytotoxicity flag (confluency mask): not cytotoxic; higher = enhanced IRF activity
# Outline: (§1)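 Cytotoxic wells were those whose IncuCyte confluency was below 70% of agonist controls in both mask sets. The cells were RAW-Dual macrophages at 50,000 cells/well in DMEM on 384-well plates, dosed with 50 nL of library stock by pin tool, stimulated with a PRR agonist 1 h later, and kept at 37 °C, 5% CO2 for 20 hours. IRF and NF-κB reporter activity, as fold change over agonist-alone wells, came from supernatant read by QuantiLuc luminescence and QuantiBlue absorbance, respectively.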
# RAW-Dual [2] = test: IRF Lucia reporter activity, fold change vs agonist alone; higher = enhanced IRF activity; conditions: agonist: MPLA (TLR4) […]
# Outline: as §1
# RAW-Dual [3] = test: IRF Lucia reporter activity, fold change vs agonist alone; cytotoxicity flag (confluency mask): cytotoxic (confluency <70% of control); higher = enhanced IRF activity
# Outline: as §1
# [4] = agonist: 3'3'-cGAMP (STING) 10 ug/mL
# [5] = library stock concentration (final ~1000-fold dilution): 10 mM, cytotoxicity flag (confluency mask): not cytotoxic
smiles,measurement,setting,value
COc1ccccc1C(=O)Nc1cc2c(cc1N1CCCCC1)n(C)c(=O)n2C (library stock concentration (final ~1000-fold dilution): 10 mM),IRF Lucia reporter activity,RAW-Dual [1]; [4],0.77
same,IRF Lucia reporter activity,RAW-Dual [1]; agonist: LPS (TLR4) 0.1 ug/mL,0.621
COc1ccccc1C(=O)Nc1cc2c(cc1N1CCCCC1)n(C)c(=O)n2C,IRF Lucia reporter activity,RAW-Dual [2]; [5],0.915
O=C1Nc2ccc(CN3C(=O)CSC3=O)cc2/C1=C/c1cc(CN2CCOCC2)c[nH]1 (library stock concentration (final ~1000-fold dilution): 10 mM),IRF Lucia reporter activity,RAW-Dual [1]; [4],0.227
same,IRF Lucia reporter activity,RAW-Dual [1]; agonist: LPS (TLR4) 0.1 ug/mL,0.666
CN1CCN(C(=O)c2ccc(-c3ccc4c(C=O)c(O)ccc4c3)s2)CC1 (library stock concentration (final ~1000-fold dilution): 10 mM),IRF Lucia reporter activity,RAW-Dual [1]; [4],0.228
same,IRF Lucia reporter activity,RAW-Dual [1]; agonist: LPS (TLR4) 0.1 ug/mL,0.45
COc1ccc2c(Nc3cc(NC(=O)c4cccc(C(C)(C)C#N)c4)ccc3C)ncnc2c1 (library stock concentration (final ~1000-fold dilution): 10 mM),IRF Lucia reporter activity,RAW-Dual [1]; [4],0.117
same,IRF Lucia reporter activity,RAW-Dual [1]; agonist: LPS (TLR4) 0.1 ug/mL,0.481
COC(=O)c1cc(O)c(O)c(O)c1 (library stock concentration (final ~1000-fold dilution): 10 mM),IRF Lucia reporter activity,RAW-Dual [1]; [4],0.299
same,IRF Lucia reporter activity,RAW-Dual [1]; agonist: LPS (TLR4) 0.1 ug/mL,0.817
CCc1cnn2c(NCc3ccc[n+]([O-])c3)cc(N3CCCCC3CCO)nc12 (stereo unspecified) (library stock concentration (final ~1000-fold dilution): 10 mM),IRF Lucia reporter activity,RAW-Dual [3]; [4],0.015
same,IRF Lucia reporter activity,RAW-Dual [3]; agonist: LPS (TLR4) 0.1 ug/mL,0.0211
CCc1cnn2c(NCc3ccc[n+]([O-])c3)cc(N3CCCCC3CCO)nc12 (stereo unspecified),IRF Lucia reporter activity,"RAW-Dual [2]; library stock concentration (final ~1000-fold dilution): 10 mM, cytotoxicity flag (confluency mask): cytotoxic (confluency <70% of control)",0.0249
N#Cc1ccc(-c2c(-c3ncn[nH]3)sc(N3CCOCC3)c2C#N)c(F)c1 (library stock concentration (final ~1000-fold dilution): 10 mM),IRF Lucia reporter activity,RAW-Dual [1]; [4],0.455
same,IRF Lucia reporter activity,RAW-Dual [1]; agonist: LPS (TLR4) 0.1 ug/mL,10.2
Cc1ccc([N+](=O)[O-])cc1S(=O)(=O)N(C)/N=C/c1cnc2ccc(Br)cn12.Cl,IRF Lucia reporter activity,"RAW-Dual [2]; library stock concentration (final ~1000-fold dilution): 2 mM, cytotoxicity flag (confluency mask): cytotoxic (confluency <70% of control)",0.927
Cc1ccc([N+](=O)[O-])cc1S(=O)(=O)N(C)/N=C/c1cnc2ccc(Br)cn12.Cl (library stock concentration (final ~1000-fold dilution): 2 mM),IRF Lucia reporter activity,RAW-Dual [3]; [4],0.0223
same,IRF Lucia reporter activity,RAW-Dual [3]; agonist: LPS (TLR4) 0.1 ug/mL,0.0233
Cc1cccc(CN2CCN(C(c3ccccc3)c3ccc(Cl)cc3)CC2)c1.Cl.Cl (stereo unspecified) (library stock concentration (final ~1000-fold dilution): 2 mM),IRF Lucia reporter activity,RAW-Dual [1]; [4],0.843
same,IRF Lucia reporter activity,RAW-Dual [1]; agonist: LPS (TLR4) 0.1 ug/mL,0.869
Cc1cccc(CN2CCN(C(c3ccccc3)c3ccc(Cl)cc3)CC2)c1.Cl.Cl (stereo unspecified),IRF Lucia reporter activity,"RAW-Dual [2]; library stock concentration (final ~1000-fold dilution): 2 mM, cytotoxicity flag (confluency mask): not cytotoxic",1.34
CC(C)CC(NC(=O)C(NC(=O)c1cccc(-c2ccccc2)n1)C(C)O)B(O)O (stereo unspecified),IRF Lucia reporter activity,RAW-Dual [2]; [5],2.38
CC(C)CC(NC(=O)C(NC(=O)c1cccc(-c2ccccc2)n1)C(C)O)B(O)O (stereo unspecified) (library stock concentration (final ~1000-fold dilution): 10 mM),IRF Lucia reporter activity,RAW-Dual [1]; [4],0.502
same,IRF Lucia reporter activity,RAW-Dual [1]; agonist: LPS (TLR4) 0.1 ug/mL,2.55
COC(=O)C(c1ccccc1Cl)N1CCc2sccc2C1.O=S(=O)(O)O (stereo unspecified) (library stock concentration (final ~1000-fold dilution): 10 mM),IRF Lucia reporter activity,RAW-Dual [1]; [4],1.02
same,IRF Lucia reporter activity,RAW-Dual [1]; agonist: LPS (TLR4) 0.1 ug/mL,1.23
COC(=O)C(c1ccccc1Cl)N1CCc2sccc2C1.O=S(=O)(O)O (stereo unspecified),IRF Lucia reporter activity,RAW-Dual [2]; [5],1.05
CC(NC(=O)C(=O)Nc1ccccc1C(C)(C)C)C(=O)NC(CC(=O)O)C(=O)COc1c(F)c(F)cc(F)c1F (stereo unspecified) (library stock concentration (final ~1000-fold dilution): 10 mM),IRF Lucia reporter activity,RAW-Dual [1]; [4],1
same,IRF Lucia reporter activity,RAW-Dual [1]; agonist: LPS (TLR4) 0.1 ug/mL,0.3
COc1cc(Nc2ncc(F)c(Nc3ccc4c(n3)NC(=O)C(C)(C)O4)n2)cc(OC)c1OC.O=S(=O)(O)c1ccccc1 (library stock concentration (final ~1000-fold dilution): 10 mM),IRF Lucia reporter activity,RAW-Dual [1]; [4],1.07
same,IRF Lucia reporter activity,RAW-Dual [1]; agonist: LPS (TLR4) 0.1 ug/mL,0.0315
COc1cc(Nc2ncc(F)c(Nc3ccc4c(n3)NC(=O)C(C)(C)O4)n2)cc(OC)c1OC.O=S(=O)(O)c1ccccc1,IRF Lucia reporter activity,RAW-Dual [2]; [5],1.12
O=C(c1cccc(Br)c1)N1CCC(N2CCCC2)CC1 (library stock concentration (final ~1000-fold dilution): 10 mM),IRF Lucia reporter activity,RAW-Dual [1]; [4],1.03
same,IRF Lucia reporter activity,RAW-Dual [1]; agonist: LPS (TLR4) 0.1 ug/mL,1.14
O=C(c1cccc(Br)c1)N1CCC(N2CCCC2)CC1,IRF Lucia reporter activity,RAW-Dual [2]; [5],1.01
C/C=C(/C)C(=O)OC1C(OC(C)=O)c2c(ccc3ccc(=O)oc23)OC1(C)C (stereo unspecified) (library stock concentration (final ~1000-fold dilution): 10 mM),IRF Lucia reporter activity,RAW-Dual [1]; [4],1.12
same,IRF Lucia reporter activity,RAW-Dual [1]; agonist: LPS (TLR4) 0.1 ug/mL,1.06
CC(=O)Nc1cccc2c1c(Sc1ccc(Cl)cc1)c(C)n2CC(=O)O (library stock concentration (final ~1000-fold dilution): 10 mM),IRF Lucia reporter activity,RAW-Dual [1]; [4],0.901
same,IRF Lucia reporter activity,RAW-Dual [1]; agonist: LPS (TLR4) 0.1 ug/mL,0.855
CC(=O)Nc1cccc2c1c(Sc1ccc(Cl)cc1)c(C)n2CC(=O)O,IRF Lucia reporter activity,RAW-Dual [2]; [5],0.997
COS(=O)(=O)[O-].C[N+]1(C)CCC(=C(c2ccccc2)c2ccccc2)CC1,IRF Lucia reporter activity,RAW-Dual [2]; [5],1.15
COS(=O)(=O)[O-].C[N+]1(C)CCC(=C(c2ccccc2)c2ccccc2)CC1 (library stock concentration (final ~1000-fold dilution): 10 mM),IRF Lucia reporter activity,RAW-Dual [1]; [4],1.13
same,IRF Lucia reporter activity,RAW-Dual [1]; agonist: LPS (TLR4) 0.1 ug/mL,1.3
O=C(Nc1ccc(OC(F)(F)F)cc1)c1sccc1NCc1ccnc2ccccc12 (library stock concentration (final ~1000-fold dilution): 10 mM),IRF Lucia reporter activity,RAW-Dual [1]; [4],0.0849
same,IRF Lucia reporter activity,RAW-Dual [1]; agonist: LPS (TLR4) 0.1 ug/mL,0.826
O=C(Nc1ccc(OC(F)(F)F)cc1)c1sccc1NCc1ccnc2ccccc12,IRF Lucia reporter activity,RAW-Dual [2]; [5],0.816
CCCCCCCCCCCCCCCCCCOP(=O)([O-])OC1CC[N+](C)(C)CC1,IRF Lucia reporter activity,"RAW-Dual [2]; library stock concentration (final ~1000-fold dilution): 10 mM water, cytotoxicity flag (confluency mask): not cytotoxic",1.03
CCCCCCCCCCCCCCCCCCOP(=O)([O-])OC1CC[N+](C)(C)CC1 (library stock concentration (final ~1000-fold dilution): 10 mM water),IRF Lucia reporter activity,RAW-Dual [1]; [4],0.316
same,IRF Lucia reporter activity,RAW-Dual [1]; agonist: LPS (TLR4) 0.1 ug/mL,0.878
Cc1cc(=O)oc2cc(O)ccc12 (library stock concentration (final ~1000-fold dilution): 10 mM),IRF Lucia reporter activity,RAW-Dual [1]; [4],0.955
same,IRF Lucia reporter activity,RAW-Dual [1]; agonist: LPS (TLR4) 0.1 ug/mL,0.839
Cc1cc(=O)oc2cc(O)ccc12,IRF Lucia reporter activity,RAW-Dual [2]; [5],0.944
COc1cccc(-c2ccc(NC(=O)C3=C(C(=O)O)CCC3)c(F)c2)c1 (library stock concentration (final ~1000-fold dilution): 10 mM),IRF Lucia reporter activity,RAW-Dual [1]; [4],1.28
same,IRF Lucia reporter activity,RAW-Dual [1]; agonist: LPS (TLR4) 0.1 ug/mL,2.48
COc1cccc(-c2ccc(NC(=O)C3=C(C(=O)O)CCC3)c(F)c2)c1,IRF Lucia reporter activity,RAW-Dual [2]; [5],1.28
